Assay results from PMC10668032.
This is one part of the list. At the low end of the ranking the order means little.

Biological target: SIX1-Q177R homeodomain (UniProt Q15475)
Assay: universal protein binding microarray
Settings: Universal all-10-mer PBM (8x60K, AMADID 030236), 300 nM GST-tagged protein, Alexa Fluor 488 anti-GST; buffer, salt, pH and temperature not stated; high values mean tight binding; most listed sequences are background and not binding sites; double strand, one strand shown

| Sequence | binding signal |
| --- | --- |
| GGCCAGCA | -0.113 E-score |
| CTGTACCA | -0.234 E-score |
| CCGACTTC | -0.247 E-score |
| GATGTCCA | -0.212 E-score |
| CCGGTTCG | 0.0997 E-score |
| TCAGAGAA | -0.168 E-score |
| AGAAGGCT | -0.327 E-score |
| AAAAAATT | -0.335 E-score |
| GGCACTGA | 0.0286 E-score |
| TATATTAA | -0.0728 E-score |
| CTAAAGGC | -0.229 E-score |
| GGGTTCAA | 0.0798 E-score |
| AGGCCACT | -0.115 E-score |
| ATTACACC | 0.479 E-score |
| CGGATGTC | -0.0341 E-score |
| GGAACTCA | -0.167 E-score |
| CAACAACC | 0.123 E-score |
| AACCCGTA | 0.0388 E-score |
| CGACGCAA | 0.0251 E-score |
| GTGGTGAA | -0.106 E-score |
| ACTTCAGA | -0.00662 E-score |
| AGAAATCT | -0.163 E-score |
| ACGATCCC | 0.14 E-score |
| CCAATCAA | 0.0209 E-score |
| ACTTACAC | 0.449 E-score |

| Sequence | binding signal |
| --- | --- |
| ACGCAGCG | 0.0248 E-score |
| CCTTTAAG | -0.0325 E-score |
| ACACGGGA | 0.411 E-score |
| ACTATCCA | 0.0296 E-score |
| GTGCTATA | 0.115 E-score |
| AACGGACG | -0.165 E-score |
| GGGAGCCA | -0.112 E-score |
| AGAACGGG | -0.00587 E-score |
| GTCAGACA | 0.114 E-score |
| ATAGTGAA | -0.176 E-score |
| CCGATTTA | -0.0162 E-score |
| CTAAAACA | 0.211 E-score |
| GCTAAAGC | -0.065 E-score |
| ATAGGAAC | -0.0361 E-score |
| ATCACGAT | -0.0474 E-score |
| CAAAATGC | -0.0152 E-score |
| CCCACATA | 0.134 E-score |
| ACGCCGCA | -0.00867 E-score |
| CGTAATGC | -0.0208 E-score |
| CCAGTGGC | -0.0089 E-score |
| AAACGCCT | -0.219 E-score |
| AACTTACG | 0.0647 E-score |
| ACTATTCG | -0.177 E-score |
| AGGATCGC | 0.0802 E-score |
| CGCCACGA | 0.0294 E-score |

| Sequence | binding signal |
| --- | --- |
| CGAGCTTA | -0.164 E-score |
| TCAAGTAA | 0.0548 E-score |
| AATGTCGT | -0.0692 E-score |
| CAGCCAGG | 0.0687 E-score |
| TATCAACA | 0.288 E-score |
| ATCCGTAC | 0.0773 E-score |
| CGGTTAGC | 0.00396 E-score |
| CAGATTGA | 0.00399 E-score |
| AACCTGAT | -0.213 E-score |
| CTTAATCA | -0.0318 E-score |
| ACTTCTCT | -0.0832 E-score |
| CATCCAAC | -0.0665 E-score |
| CTACAAGA | -0.163 E-score |
| CGGTAAAA | -0.0455 E-score |
| CCACTAAC | 0.115 E-score |
| CGCCCCTC | 0.142 E-score |
| CACTAGTC | 0.208 E-score |
| CGTGCATA | 0.0215 E-score |
| ACAGGTGC | 0.148 E-score |
| CCACTTTA | -0.0459 E-score |
| AAGTGACT | -0.0504 E-score |
| ATGGCAAA | -0.375 E-score |
| CGCTTATC | 0.053 E-score |
| GTGCCGTA | 0.00856 E-score |
| ATCGAGTC | 0.00664 E-score |

| Sequence | binding signal |
| --- | --- |
| ACCGGAAC | -0.0312 E-score |
| AGGCTATC | -0.162 E-score |
| GAGAAGAC | -0.114 E-score |
| AGCCTAGG | -0.175 E-score |
| GGAGATCA | -0.0528 E-score |
| TGAACTAA | -0.125 E-score |
| ACACGGGG | 0.452 E-score |
| GGATACGA | 0.0396 E-score |
| CTGTTGGC | -0.0882 E-score |
| CCTGATGA | -0.0166 E-score |
| ACAGCATC | -0.233 E-score |
| AACCGCAG | -0.0792 E-score |
| TAGAGGAA | -0.0773 E-score |
| CATGTTGA | -0.0908 E-score |
| AAGGGCTG | -0.251 E-score |
| ATCCGGAC | -0.0656 E-score |
| CCTGCGGA | 0.108 E-score |
| ACGGCTGC | -0.0602 E-score |
| ATATAGGA | 0.0594 E-score |
| AGCAGTTC | -0.0476 E-score |
| AAACGTAG | 0.112 E-score |
| CACGTTGA | 0.129 E-score |
| GCGCCAGC | -0.13 E-score |
| AGGGGGGA | 0.1 E-score |
| TAGTCAAA | -0.208 E-score |

| Sequence | binding signal |
| --- | --- |
| CGGACGTC | -0.196 E-score |
| GCAAACTA | -0.0156 E-score |
| CGGGAGAC | -0.0591 E-score |
| GACCCGTC | 0.0402 E-score |
| ACTTCGGG | -0.0614 E-score |
| CGCGCACG | 0.0433 E-score |
| GGCCGGCA | -0.205 E-score |
| ATCCTCCG | 0.0276 E-score |
| ATTACTCG | 0.0258 E-score |
| ACCGTGTG | 0.259 E-score |
| TGAAAGCA | -0.0365 E-score |
| AGTGTACC | 0.414 E-score |
| GTAGCGAA | -0.121 E-score |
| GAACGCGA | -0.0752 E-score |
| CCATACTA | 0.0396 E-score |
| CGGGAGGA | -0.176 E-score |
| ATACTGGA | -0.0122 E-score |
| AAGACGCC | 0.0808 E-score |
| CGGACCCG | 0.00687 E-score |
| ACAAACTG | -0.315 E-score |
| CGACTGAG | -0.073 E-score |
| CGTCGGGA | 0.0246 E-score |
| AGTTAGGC | -0.137 E-score |
| CCCCAATA | 0.153 E-score |
| TAAAGCCA | -0.319 E-score |

| Sequence | binding signal |
| --- | --- |
| ACCTTATC | 0.0502 E-score |
| CGTCTTCA | 0.0594 E-score |
| CTAAACCC | 0.0848 E-score |
| CCAATGAG | -0.0461 E-score |
| ATCCTGCG | -0.174 E-score |
| GTTCCGCA | 0.0899 E-score |
| CTGTTGAC | -0.0966 E-score |
| ACCAATCG | 0.0956 E-score |
| AACACGCA | 0.396 E-score |
| ATATACTC | 0.0205 E-score |
| AAGCCTGA | -0.267 E-score |
| AGCCTGCC | -0.081 E-score |
| AGCAATGG | -0.153 E-score |
| CGACACTC | 0.437 E-score |
| CAACCGCC | 0.0311 E-score |
| TACACTAA | 0.381 E-score |
| ATTGTAAA | -0.235 E-score |
| ACCAAGGT | 0.0377 E-score |
| GTAATGAC | 0.00341 E-score |
| ATTTTTGA | 0.00326 E-score |
| AATAGCAT | -0.182 E-score |
| ACACTTAC | 0.378 E-score |
| GTGGTTTA | -0.0286 E-score |
| AGGGGCGG | 0.113 E-score |
| GGAACCAC | 0.0371 E-score |

| Sequence | binding signal |
| --- | --- |
| CTTCTGGC | -0.0493 E-score |
| TAACATCA | -0.0745 E-score |
| CGAAGGGA | 0.0617 E-score |
| GTCGACAA | -0.123 E-score |
| ACGTCTAT | 0.013 E-score |
| GTCACACA | 0.215 E-score |
| AATCAACT | -0.202 E-score |
| CCCGGCAA | 0.108 E-score |
| CCGGGGAC | -0.00758 E-score |
| AAACACCC | 0.45 E-score |
| ACTCTCGA | 0.125 E-score |
| ACAACTCT | -0.16 E-score |
| AACGCGGG | 0.144 E-score |
| AGCACTGC | -0.0354 E-score |
| AACTGCCC | 0.00411 E-score |
| AATCGAGT | -0.068 E-score |
| TAAGGGCA | -0.0317 E-score |
| AAGCATGC | -0.139 E-score |
| CAGGGTTA | 0.0745 E-score |
| CCGCTAGG | -0.0497 E-score |
| GCCTTCCA | -0.187 E-score |
| AGCCACGC | -0.105 E-score |
| GTGCTTTA | -0.0324 E-score |
| ACTGCAAG | -0.00106 E-score |
| ACCCGTGC | 0.162 E-score |

| Sequence | binding signal |
| --- | --- |
| TAACGTCA | -0.217 E-score |
| CGATACGA | -0.0117 E-score |
| CTCAGGGC | -0.188 E-score |
| CCAGAGAA | -0.217 E-score |
| ACGGGTTA | 0.0558 E-score |
| AAATGCTG | 0.0353 E-score |
| TAGGTGCA | 0.117 E-score |
| AGAACAGA | -0.246 E-score |
| ATTAGGAG | 0.0704 E-score |
| CGGCAGGA | -0.137 E-score |
| AGTACAAA | -0.107 E-score |
| ACAGCGAA | -0.19 E-score |
| ACAAGGGT | 0.21 E-score |
| CGCATCAG | 0.0874 E-score |
| CTAAGTAG | -0.00419 E-score |
| AGTCAGGG | -0.00696 E-score |
| AACGGCCG | -0.133 E-score |
| CAGATACA | 0.313 E-score |
| GGCTATCA | -0.288 E-score |
| CCCGAATA | 0.012 E-score |
| AGGCCTCC | -0.208 E-score |
| GGTGGGAC | 0.0648 E-score |
| TCCTTGAA | -0.0907 E-score |
| ACAATGCG | 0.0849 E-score |
| AGATGTGG | -0.0894 E-score |

| Sequence | binding signal |
| --- | --- |
| AGTTGGAT | 0.0461 E-score |
| ATTCCAGA | -0.0893 E-score |
| CACAACAC | 0.38 E-score |
| AACCCTTC | 0.0433 E-score |
| CCAGAATA | 0.041 E-score |
| GCTGCGAA | -0.153 E-score |
| AAGGAGGG | 0.0083 E-score |
| AGGAGTGC | 0.0976 E-score |
| GACGGATC | -0.138 E-score |
| GAAAATGC | -0.254 E-score |
| CCGGTTGC | -0.0158 E-score |
| GCACGGAA | -0.0728 E-score |
| TCTAACCA | -0.167 E-score |
| TCGTACAA | -0.218 E-score |
| GCTATCGA | -0.15 E-score |
| ACCCCAAC | 0.237 E-score |
| AGTAACTC | 0.0488 E-score |
| CAAGTAGA | -0.0216 E-score |
| ACCGGTAT | 0.212 E-score |
